The values that follow come from US20100113370A1, “METHODS AND COMPOUNDS FOR MODULATING INFLAMMATORY PROCESSES” (priority 2007, published 2010).

The target of assay [1] is T1, ABCC4 (Homo sapiens, UniProt O15439).
T1 sequence (O15439 1-1325): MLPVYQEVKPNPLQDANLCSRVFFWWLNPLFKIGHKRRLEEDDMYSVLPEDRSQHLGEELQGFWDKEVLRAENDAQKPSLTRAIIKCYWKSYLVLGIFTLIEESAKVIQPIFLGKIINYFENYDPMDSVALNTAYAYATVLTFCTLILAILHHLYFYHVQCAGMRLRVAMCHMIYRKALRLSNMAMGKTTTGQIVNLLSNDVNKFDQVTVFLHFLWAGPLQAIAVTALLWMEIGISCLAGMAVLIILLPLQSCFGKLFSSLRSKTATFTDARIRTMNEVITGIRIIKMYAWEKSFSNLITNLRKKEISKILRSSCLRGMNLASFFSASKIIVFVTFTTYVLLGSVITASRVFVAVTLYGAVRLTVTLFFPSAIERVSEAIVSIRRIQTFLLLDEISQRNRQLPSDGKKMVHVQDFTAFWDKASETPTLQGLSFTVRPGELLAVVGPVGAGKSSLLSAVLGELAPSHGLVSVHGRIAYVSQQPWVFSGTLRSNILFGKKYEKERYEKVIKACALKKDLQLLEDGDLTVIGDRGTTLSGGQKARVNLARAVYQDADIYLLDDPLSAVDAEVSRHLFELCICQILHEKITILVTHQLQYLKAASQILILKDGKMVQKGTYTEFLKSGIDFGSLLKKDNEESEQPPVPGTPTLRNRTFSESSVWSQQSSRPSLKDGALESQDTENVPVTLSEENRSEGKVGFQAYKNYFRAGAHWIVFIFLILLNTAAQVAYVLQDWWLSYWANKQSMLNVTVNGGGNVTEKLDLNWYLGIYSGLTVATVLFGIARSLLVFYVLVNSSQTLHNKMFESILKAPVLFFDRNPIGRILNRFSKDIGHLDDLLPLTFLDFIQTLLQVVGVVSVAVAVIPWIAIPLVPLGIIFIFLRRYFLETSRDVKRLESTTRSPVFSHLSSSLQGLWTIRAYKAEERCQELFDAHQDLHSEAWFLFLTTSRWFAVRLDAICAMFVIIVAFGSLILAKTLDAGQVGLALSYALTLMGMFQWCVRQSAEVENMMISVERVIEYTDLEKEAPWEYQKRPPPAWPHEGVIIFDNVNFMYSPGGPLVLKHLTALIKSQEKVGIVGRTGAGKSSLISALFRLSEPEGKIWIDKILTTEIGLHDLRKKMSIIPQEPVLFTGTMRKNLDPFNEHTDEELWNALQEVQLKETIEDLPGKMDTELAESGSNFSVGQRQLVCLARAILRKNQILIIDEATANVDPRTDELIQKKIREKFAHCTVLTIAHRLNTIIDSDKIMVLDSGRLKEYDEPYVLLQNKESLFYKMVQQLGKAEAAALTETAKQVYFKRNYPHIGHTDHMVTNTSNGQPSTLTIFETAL
The note with it: for inhibition of ATP-dependent [^3H]LTB4 transport (in words) / inhibition of ATP-dependent [^3H]LTB4 transport: 1 μM, presence of GSH; for inhibition of ATP-dependent [^3H]LTB4 transport: V79-ABCC4 vesicles.

The target of assay [2] is T1, ABCC4. The experiment in a line: ATP-dependent substrate transport and kinetic analysis in membrane vesicles from V79 cells with recombinant ABCC4. In kind it is biochemical. The arrangement: expressed in transfected cells; host or cells: Chinese hamster lung V79 fibroblasts (V79-ABCC4), inside-out membrane vesicles. The note with it: vesicles from V79-ABCC4; constant 100 nM LTB4, GSH 1 to 10 mM; read-out: Km value of GSH for ABCC4.

Assay [3] has as its target T1, ABCC4. The experiment in a line: ATP-dependent substrate transport and kinetic analysis in plasma membrane vesicles from human platelets (endogenous ABCC4). The note with it: read-out: Km value for ABCC4 (LTB4 transport); vesicles from human platelets; 0.1 to 1 μM LTB4, 5 mM GSH.

For `CCCCCC=CCC=CCC=CC=CC(O)CCCC(=O)O` (stereo not shown) [5-Hydroxy-6,8,11,14-eicosatetraenoate], the “inhibition of ATP-dependent [^3H]LTB4 transport (in words)” value in assay [1] is given as “did not cause a significant inhibition”. In the case of `CCCCCC=CCC(O)C=CC=CCC=CCCCC(=O)O` (stereo not shown) [12-Hydroxy-5,8,10,14-eicosatetraenoate, 12-hydroxy-5,8,10,14-eicosatetraenoate], in assay [1], the “inhibition of ATP-dependent [^3H]LTB4 transport (in words)” value was “did not cause a significant inhibition”. As for `N[C@@H](CCC(=O)N[C@@H](CS)C(=O)NCC(=O)O)C(=O)O` [GSH, reduced glutathione], the Km in assay [2] was 1100 ± 200 µM. As to `CCCCC/C=C\C[C@@H](O)/C=C/C=C/C=C\[C@@H](O)CCCC(=O)O` [LTB4, Leukotriene B4], in assay [3], the Km was determined as 5.6 ± 0.6 µM. For `CCCCC/C=C\C\C=C/C=C/C=C/[C@@H](SC[C@H](NC(=O)CC[C@H](N)C(=O)O)C(=O)NCC(=O)O)[C@@H](O)CCCC(=O)O` [LTC4, leukotriene C4], the “inhibition of ATP-dependent [^3H]LTB4 transport” value in assay [1] turned out to be 61%. Take `CCCCC/C=C\C\C=C/C=C/C=C/[C@@H](SC[C@H](N)C(=O)NCC(=O)O)[C@@H](O)CCCC(=O)O` [LTD4, leukotriene D4]: in assay [1], the “inhibition of ATP-dependent [^3H]LTB4 transport” value came to 33%. On to `CCCCCCCCCCSC[C@H](NC(=O)CC[C@H](N)C(=O)O)C(=O)NCC(=O)O` [S-Decyl GSH, S-decyl glutathione], for which the inhibition at 10 µM in assay [1] (read-out: inhibition of ATP-dependent [^3H]LTB4 transport) was found to be 74%.
